According to PMC7007966 (Journal of medicinal chemistry, 2019):

How the values were obtained:
[1] = tested on: Male C57BL/6 wild type mice; conditions: ip administration; cited from earlier work
[2] = tested on: Male C57BL/6 wild type mice; conditions: cumulative dosing up to 10 mg/kg ip, 50°C WWTW

SMILES	Antinociceptive activity (in words), previously reported compounds [1]	Duration of action (in words), previously reported compounds [1]	Antinociceptive activity (in words) [2]
CC(=O)N1CC[C@@H](NC(=O)[C@@H](N)Cc2c(C)cc(O)cc2C)c2cc(Cc3ccc4ccccc4c3)ccc21.O=C(O)C(F)(F)F [Compound 2B]	full antinociceptive efficacy	greater than four hours	–
CC(=O)N1CC[C@@H](NC(=O)[C@@H](N)Cc2c(C)cc(O)cc2C)c2cc(CN3CCc4ccccc4C3)ccc21.O=C(O)C(F)(F)F [Compound 2D]	full antinociceptive efficacy	greater than four hours	–
Cc1cc(O)cc(C)c1C[C@H](N)C(=O)N[C@@H]1CCN(S(C)(=O)=O)c2ccc(Cc3ccccc3)cc21.O=C(O)C(F)(F)F [Compound 4A]	–	–	full antinociceptive activity
Cc1cc(O)cc(C)c1C[C@H](N)C(=O)N[C@@H]1CCN(S(C)(=O)=O)c2ccc(CN3CCc4ccccc4C3)cc21.O=C(O)C(F)(F)F [Compound 4D]	–	–	full antinociceptive activity
Cc1cc(O)cc(C)c1C[C@H](N)C(=O)N[C@@H]1CCN(C(=O)c2ccccc2)c2ccc(Cc3ccc4ccccc4c3)cc21.O=C(O)C(F)(F)F [Compound 5B]	–	–	full antinociceptive activity
Cc1cc(O)cc(C)c1C[C@H](N)C(=O)N[C@@H]1CCN(C(=O)c2ccccc2)c2ccc(Cc3cnc4ccccc4c3)cc21.O=C(O)C(F)(F)F [Compound 5C]	–	–	full antinociceptive activity
